Assay results published in a compilation of properties of binary mixtures (doi:10.1021/je401124t).
Some of these densities may be calculated back from excess volumes.

Test: xn = mol fraction of the nth substance listed
Conditions: 101 kPa

COP(=O)([O-])OC.Cn1cc[n+](C)c1 + CO
mass density [kg/m3]
Conditions | x2 = 0 | x2 = 0.1054 | x2 = 0.2009 | x2 = 0.2977 | x2 = 0.3984 | x2 = 0.5028 | x2 = 0.6018 | x2 = 0.7027 | x2 = 0.8002 | x2 = 0.8998
293.15 K | 1264.9 | 1254.1 | 1242.7 | 1228.6 | 1210.9 | 1187.2 | – | 1118.1 | 1062 | –
298.15 K | – | 1250.6 | 1239.2 | – | – | 1183.6 | 1154.2 | 1114.3 | 1058.1 | 960.6
303.15 K | 1257.8 | 1247.1 | – | 1221.6 | 1203.7 | – | 1150.5 | 1110.5 | 1054.1 | 956.4
308.15 K | 1254.4 | 1243.7 | 1232.2 | 1218.1 | 1200.2 | – | 1146.8 | 1106.7 | 1050.2 | 952.3
313.15 K | 1251 | 1240.2 | 1228.7 | 1214.5 | 1196.6 | 1172.8 | 1143.1 | 1103 | 1046.3 | 948.1
318.15 K | 1247.6 | – | 1225.2 | 1211 | 1193.1 | 1169.2 | 1139.5 | – | 1042.5 | 944
323.15 K | 1244.2 | 1233.3 | 1221.8 | – | 1189.5 | – | 1135.8 | 1095.5 | 1038.6 | 939.9

CCCO + COP(=O)([O-])OC.Cn1cc[n+](C)c1
x1 = 1
Conditions | mass density [kg/m3]
293.15 K | 803.6
298.15 K | 799.7
303.15 K | 795.9
308.15 K | 791.8
313.15 K | 787.7
318.15 K | 783.6
323.15 K | 779.4

COP(=O)([O-])OC.Cn1cc[n+](C)c1 + CCO
mass density [kg/m3]
Conditions | x2 = 0 | x2 = 0.0999 | x2 = 0.2028 | x2 = 0.3009 | x2 = 0.4074 | x2 = 0.5028 | x2 = 0.6 | x2 = 0.6992 | x2 = 0.7999 | x2 = 0.9
293.15 K | 1264.9 | 1249.8 | 1230 | 1208.8 | 1181.8 | – | – | 1068.2 | – | –
298.15 K | 1261.3 | 1246.2 | 1226.6 | 1205.2 | – | 1148.5 | – | 1064.5 | – | 915.2
303.15 K | 1257.8 | – | 1223.1 | 1201.7 | 1174.7 | 1144.8 | 1108.3 | 1060.8 | – | 911.1
308.15 K | 1254.4 | 1239.4 | 1219.7 | 1198.2 | 1171.2 | – | 1104.7 | – | 993.3 | 907.1
313.15 K | 1251 | 1235.9 | 1216.2 | 1194.7 | 1167.7 | 1137.7 | 1101 | 1053.4 | 989.5 | 903.1
318.15 K | – | 1232.5 | 1212.8 | 1191.2 | 1164.2 | 1134.2 | 1097.5 | 1049.7 | – | 899.1
323.15 K | 1244.2 | – | 1209.3 | 1187.8 | 1160.7 | 1130.7 | 1093.8 | 1046 | 982 | –

COP(=O)([O-])OC.Cn1cc[n+](C)c1 + CC(C)O
mass density [kg/m3]
Conditions | x2 = 0 | x2 = 0.0999 | x2 = 0.2032 | x2 = 0.301 | x2 = 0.402 | x2 = 0.5002 | x2 = 0.6 | x2 = 0.7009 | x2 = 0.7997 | x2 = 0.9013
293.15 K | – | – | 1219.1 | 1192.6 | 1160.5 | 1124.7 | 1081.3 | 1028.9 | 966.9 | 888.4
298.15 K | 1261.3 | 1240.2 | – | 1189.1 | 1157 | – | 1077.8 | – | 963.2 | 884.5
303.15 K | 1257.8 | 1236.8 | 1212.3 | 1185.6 | 1153.5 | – | 1074.2 | 1021.7 | 959.4 | 880.6
308.15 K | 1254.4 | 1233.4 | 1208.8 | 1182.2 | 1150.1 | 1114 | 1070.6 | – | 955.6 | –
313.15 K | – | – | – | – | 1146.6 | 1110.5 | 1067 | 1014.4 | 951.9 | 872.7
318.15 K | 1247.6 | 1226.6 | – | 1175.2 | 1143 | – | 1063.4 | – | 948.1 | 868.6
323.15 K | 1244.2 | 1223.2 | 1198.6 | 1171.8 | 1139.6 | – | 1059.8 | 1006.9 | 944.3 | –

CC(C)O + COP(=O)([O-])OC.Cn1cc[n+](C)c1
x1 = 1
Conditions | mass density [kg/m3]
293.15 K | 785.3
298.15 K | 781.1
303.15 K | 776.8
308.15 K | 772.4
313.15 K | 768
318.15 K | 763.5
323.15 K | 758.9

COP(=O)([O-])OC.Cn1cc[n+](C)c1 + CCCO
mass density [kg/m3]
Conditions | x2 = 0 | x2 = 0.098 | x2 = 0.1993 | x2 = 0.3018 | x2 = 0.4 | x2 = 0.5002 | x2 = 0.5996 | x2 = 0.6995 | x2 = 0.799 | x2 = 0.8998
293.15 K | 1264.9 | 1244.7 | 1222 | – | 1166.1 | 1131 | 1090.1 | 1040.5 | 980.4 | 904.2
298.15 K | – | 1241.2 | 1218.6 | 1192 | 1162.6 | 1127.4 | 1086.5 | 1036.8 | 976.7 | 900.4
303.15 K | 1257.8 | 1237.8 | – | 1188.5 | 1159.1 | – | – | 1033.1 | 973 | 896.6
308.15 K | 1254.4 | 1234.4 | – | 1185 | 1155.5 | 1120.3 | 1079.2 | 1029.5 | 969.2 | 892.7
313.15 K | 1251 | 1230.9 | 1208.2 | 1181.5 | 1152 | 1116.7 | – | 1025.8 | 965.5 | 888.9
318.15 K | 1247.6 | – | 1204.7 | 1178 | – | – | 1072 | 1022.1 | 961.7 | 885
323.15 K | 1244.2 | 1224 | 1201.2 | – | 1144.9 | 1109.6 | – | 1018.5 | – | 881.1

CO + COP(=O)([O-])OC.Cn1cc[n+](C)c1
x1 = 1
Conditions | mass density [kg/m3]
293.15 K | 792.1
298.15 K | 787.4
308.15 K | 777.9
313.15 K | 773.1
323.15 K | 763.5

CCO + COP(=O)([O-])OC.Cn1cc[n+](C)c1
x1 = 1
Conditions | mass density [kg/m3]
293.15 K | 789.9
298.15 K | 785.6
303.15 K | 782.2
308.15 K | 777.8
313.15 K | 773.4
318.15 K | 769
323.15 K | 764.5
